# Experimental data from the supplement of paper PMC8728848.
# The list shows a part of the results.
# How the values were obtained:
# Assay in all cases: glycan array binding signal (z-score within array); higher = stronger binding
# Conditions in all cases: glycan notation: IUPAC condensed, linker removed
# Gal3S(b1-4)Glc = target: Gal3S(b1-4)Glc
# In short: (§1)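 From the Consortium for Functional Glycomics database, 3228 arrays were curated, keeping only those whose protein sequence was available. Binding is given as a within-array Z-score averaged across arrays sharing a protein sequence and across linkers. Negative Z-scores can be read as non-binding.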
# Gal3S(b1-4)Glc6S = target: Gal3S(b1-4)Glc6S
# In short: as §1
# Gal3S(b1-4)GlcNAc = target: Gal3S(b1-4)GlcNAc
# In short: as §1
# [1] = target: Gal3S(b1-4)[Fuc(a1-3)]Glc6S
# In short: as §1
# [2] = target: Gal3S(b1-4)[Fuc(a1-3)]GlcNAc
# In short: as §1
# [3] = target: Gal3S(b1-4)[Fuc(a1-3)]GlcNAc6S
# In short: as §1
# Gal3S4S(b1-4)GlcNAc = target: Gal3S4S(b1-4)GlcNAc
# In short: as §1
# Gal3S6S(b1-4)GlcNAc = target: Gal3S6S(b1-4)GlcNAc
# In short: as §1
# Gal3S6S(b1-4)GlcNAc6S = target: Gal3S6S(b1-4)GlcNAc6S
# In short: as §1
# Gal4S(b1-4)GlcNAc = target: Gal4S(b1-4)GlcNAc
# In short: as §1
# Gal4S6S(b1-4)GlcNAc = target: Gal4S6S(b1-4)GlcNAc
# In short: as §1
# Gal6P(b1-4)GlcNAc = target: Gal6P(b1-4)GlcNAc
# In short: as §1
# Gal6S(b1-3)GlcNAc = target: Gal6S(b1-3)GlcNAc
# In short: as §1
# Gal6S(b1-3)GlcNAc6S = target: Gal6S(b1-3)GlcNAc6S
# In short: as §1
# Gal6S(b1-4)Glc = target: Gal6S(b1-4)Glc
# In short: as §1
# Gal6S(b1-4)Glc6S = target: Gal6S(b1-4)Glc6S
# In short: as §1
# Gal6S(b1-4)GlcNAc = target: Gal6S(b1-4)GlcNAc
# In short: as §1
# Gal6S(b1-4)GlcNAc6S = target: Gal6S(b1-4)GlcNAc6S
# In short: as §1
# GalNAc(a1-3)Gal = target: GalNAc(a1-3)Gal
# In short: as §1
# GalNAc(a1-3)GalNAc = target: GalNAc(a1-3)GalNAc
# In short: as §1
# [4] = target: GalNAc(a1-3)GalNAc(b1-3)Gal(a1-4)Gal(b1-4)Glc
# In short: as §1
# [5] = target: GalNAc(a1-3)GalNAc(b1-3)Gal(a1-4)Gal(b1-4)GlcNAc
# In short: as §1
# GalNAc(b1-3)Gal = target: GalNAc(b1-3)Gal
# In short: as §1
# [6] = target: GalNAc(b1-3)Gal(a1-4)Gal(b1-4)GlcNAc
# In short: as §1
# [7] = target: GalNAc(b1-3)Gal(a1-4)Gal(b1-4)GlcNAc(b1-3)Gal(b1-4)Glc
# In short: as §1
# [8] = target: GalNAc(b1-3)Gal(a1-6)Gal(b1-4)Glc
# In short: as §1
# GalNAc(b1-3)GalNAc = target: GalNAc(b1-3)GalNAc
# In short: as §1
# GalNAc(b1-3)GlcNAc = target: GalNAc(b1-3)GlcNAc
# In short: as §1
# GalNAc(b1-4)Gal(b1-4)Glc = target: GalNAc(b1-4)Gal(b1-4)Glc
# In short: as §1
# GalNAc(b1-4)GlcNAc = target: GalNAc(b1-4)GlcNAc
# In short: as §1
# [9] = target: GalNAc(b1-4)GlcNAc(b1-2)Man
# In short: as §1
# [10] = target: GalNAc(b1-4)GlcNAc(b1-2)Man(a1-3)[GalNAc(b1-4)GlcNAc(b1-2)Man(a1-6)]Man(b1-4)GlcNAc(b1-4)GlcNAc
# In short: as §1
# [11] = target: GalNAc(b1-4)GlcNAc(b1-3)GalNAc(b1-4)GlcNAc
# In short: as §1
# GalNAc(b1-4)GlcNAc6S = target: GalNAc(b1-4)GlcNAc6S
# In short: as §1
# GalNAc(b1-6)GalNAc = target: GalNAc(b1-6)GalNAc
# In short: as §1
# GalNAc3S(b1-4)GlcNAc = target: GalNAc3S(b1-4)GlcNAc
# In short: as §1
# GalNAc3S(b1-4)GlcNAc3S = target: GalNAc3S(b1-4)GlcNAc3S
# In short: as §1
# [12] = target: GalNAc3S(b1-4)[Fuc(a1-3)]GlcNAc
# In short: as §1
# GalNAc4S6S(b1-4)GlcNAc = target: GalNAc4S6S(b1-4)GlcNAc
# In short: as §1
# GalNAc6S(b1-4)GlcNAc = target: GalNAc6S(b1-4)GlcNAc
# In short: as §1
# Glc(a1-4)Glc = target: Glc(a1-4)Glc
# In short: as §1
# [13] = target: Glc(a1-4)Glc(a1-4)Glc(a1-4)Glc
# In short: as §1
# Glc(a1-6)Glc(a1-6)Glc = target: Glc(a1-6)Glc(a1-6)Glc
# In short: as §1
# [14] = target: Glc(a1-6)Glc(a1-6)Glc(a1-6)Glc
# In short: as §1
# Glc(b1-4)Glc = target: Glc(b1-4)Glc
# In short: as §1
binder,measurement,setting,value
PX14367B-bvu-516-23-516 (Bacteroides vulgatus) (protein) LDTIPTTYVDAGSVFGKTGDAEKVLNGGWNYLMETFNSYANPGYGAMLRANDAMGSDVVLNSKYGFRTHNEFSAIYGKGGTNTLSWLLAYRVINDCNGVLDNIDAAEGTQADRNRIKGQALALRGFLYLHLASCYSFAIDKDPDAVCAPIYTQSTDETIAAEGKPASSVSEVYAQSINDLEEALELIPETYVRDAKHKIDNEVVLGILSRACLYARQWEKAKTYSDKLLAKDNYLMTESEYKAGFNSVDNKEWIWGHAQTNDQSNASYQFHYLDTTTKGSYYYSFNVDPYFRDLFEDGDYRKEMLFWATDPGADVESAAYVWMRNSKFRFRDIENQLGDIVLMRVAEIYLINAEAKAHLNDPDAINKLNDLKTARGAKTIHTNLSQQDLLETIWLERRKELWGEGFSLIDIIRNQQTVVRNAYPEGPIDYIYTDENGQTHTLKKKTQGHRFFNFPDKSAFCPNSKYYLYRITDSEELANKNLYKDHPKLSIYTK,glycan array binding signal (z-score),Gal3S(b1-4)Glc,-0.159
same,glycan array binding signal (z-score),Gal3S(b1-4)Glc6S,-0.22
same,glycan array binding signal (z-score),Gal3S(b1-4)GlcNAc,-0.197
same,glycan array binding signal (z-score),[1],2.87
same,glycan array binding signal (z-score),[2],-0.309
same,glycan array binding signal (z-score),[3],-0.285
same,glycan array binding signal (z-score),Gal3S4S(b1-4)GlcNAc,-0.108
same,glycan array binding signal (z-score),Gal3S6S(b1-4)GlcNAc,-0.262
same,glycan array binding signal (z-score),Gal3S6S(b1-4)GlcNAc6S,-0.211
same,glycan array binding signal (z-score),Gal4S(b1-4)GlcNAc,-0.325
same,glycan array binding signal (z-score),Gal4S6S(b1-4)GlcNAc,-0.294
same,glycan array binding signal (z-score),Gal6P(b1-4)GlcNAc,-0.339
same,glycan array binding signal (z-score),Gal6S(b1-3)GlcNAc,3
same,glycan array binding signal (z-score),Gal6S(b1-3)GlcNAc6S,-0.297
same,glycan array binding signal (z-score),Gal6S(b1-4)Glc,-0.219
same,glycan array binding signal (z-score),Gal6S(b1-4)Glc6S,-0.214
same,glycan array binding signal (z-score),Gal6S(b1-4)GlcNAc,-0.039
same,glycan array binding signal (z-score),Gal6S(b1-4)GlcNAc6S,6.08
same,glycan array binding signal (z-score),GalNAc(a1-3)Gal,-0.133
same,glycan array binding signal (z-score),GalNAc(a1-3)GalNAc,-0.365
same,glycan array binding signal (z-score),[4],-0.201
same,glycan array binding signal (z-score),[5],-0.266
same,glycan array binding signal (z-score),GalNAc(b1-3)Gal,-0.341
same,glycan array binding signal (z-score),[6],-0.26
same,glycan array binding signal (z-score),[7],-0.376
same,glycan array binding signal (z-score),[8],-0.249
same,glycan array binding signal (z-score),GalNAc(b1-3)GalNAc,-0.152
same,glycan array binding signal (z-score),GalNAc(b1-3)GlcNAc,-0.357
same,glycan array binding signal (z-score),GalNAc(b1-4)Gal(b1-4)Glc,-0.318
same,glycan array binding signal (z-score),GalNAc(b1-4)GlcNAc,-0.301
same,glycan array binding signal (z-score),[9],-0.113
same,glycan array binding signal (z-score),[10],-0.286
same,glycan array binding signal (z-score),[11],-0.331
same,glycan array binding signal (z-score),GalNAc(b1-4)GlcNAc6S,-0.288
same,glycan array binding signal (z-score),GalNAc(b1-6)GalNAc,-0.34
same,glycan array binding signal (z-score),GalNAc3S(b1-4)GlcNAc,-0.285
same,glycan array binding signal (z-score),GalNAc3S(b1-4)GlcNAc3S,-0.254
same,glycan array binding signal (z-score),[12],1.93
same,glycan array binding signal (z-score),GalNAc4S6S(b1-4)GlcNAc,-0.223
same,glycan array binding signal (z-score),GalNAc6S(b1-4)GlcNAc,-0.124
same,glycan array binding signal (z-score),Glc(a1-4)Glc,-0.287
same,glycan array binding signal (z-score),[13],-0.259
same,glycan array binding signal (z-score),Glc(a1-6)Glc(a1-6)Glc,-0.38
same,glycan array binding signal (z-score),[14],-0.251
same,glycan array binding signal (z-score),Glc(b1-4)Glc,-0.261
